From a collection of fitness landscapes (doi:10.1016/j.celrep.2020.107928)
In all, about 81,000 sequences were measured (“one-hybrid fitness for binding NBS DNA”: median about -0.1, highest 2% from about 0.36 on). This is one part of the list.

B1: Caulobacter ParB omega fusion; a variant is named by its letters at X, in order, B8GW30 (parent)
chain: MESVVVGEPGMSEGRRGLGRGLSALLGEVDAAPAQAPGEQLGGSREAPIEILQRNPDQPRRTFREEDLEDLSNSIREKGVLQPILVRPSPDTAGEYQIVAGERAWRAAQRAGLKTVPIMVRELDDLAVLEIGIIENVQRADLNVLEEALSYKVLMEKFERTQENIAQTIGKSXSHVANXMRLLXLPDEVQSYLVSGELTAXHARAIAAAADPVALAKQIIEGGLSVRETEALARKAPNLSAGKSKGGRPPRVKDTDTQALESDLSSVLGLDVSIDHRGSTGTLTITYATLEQLDDLCNRLTRGI

Variants of: B1
Assay: one-hybrid fitness for binding NBS DNA (the Noc-binding site; scaled: cognate 1, non-cognate 0); higher = stronger binding
Details: with NBS DNA site
How it was run: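 In E. coli USO, a HIS3 reporter with its site placed 19 bp from the promoter was used to select Caulobacter ParB variants randomised at four specificity codons. Growth lasted 48 hours at 37°C on histidine-free M9 containing 0.1 mM IPTG and 5 mM 3-AT. Fitness was taken as the log change in variant-to-wild-type read ratio from Illumina sequencing of pre- and post-selection plasmids, rescaled between the non-cognate and cognate sites.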

one-hybrid fitness for binding NBS DNA, 0.459:
QQRM

one-hybrid fitness for binding NBS DNA, 0.431:
RMLR

one-hybrid fitness for binding NBS DNA, 0.503:
RTMR

one-hybrid fitness for binding NBS DNA, 0.372:
RYCT

one-hybrid fitness for binding NBS DNA, ≤ 0.2:
DDLS
DFLT
DRRP
ITQG
YNRP
HAGT
RMPR
RITP
NWPR
TSVG
LWTE
MVEG
EGVC
RWWM
LYAM
YRMS
SVID
TDTW
QQIK
QAHG
KVEY
FTHK
QDYT
EDQS
TTWP
GRRV
AVIN
ALVK
EHCG
KGTC
MPNR
INPL
VRKA
HREA
AMMT
NSIR
SSRY
SCHH
HMPE
YFYG
RHVF
EKTG
PLKL
RYPP
AWHV
NHAG
ISHH
NNEL
LVQN
NSQC
QTMN
FAPV
LTFL
MSAC
IYRI
PLHS
PHNH
DQGY
ECTN
SGST
SQLS
RGGS
MCMG
MDEG
PPAN
RSQQ
MGWS
LWDT
DNQC
YYLR
IMRY
WDPR
HPLL
PGPD
RGRV
ERAR
VPKQ
MPQL
ERSW
RETV
IRSY
VVRV
KWAD
KTSR
VMDC
DKPV
HDWL
RPYG
HTDA
GVMG
GFCL
AYTK
GAMC
QCQC
VSAC
DLKH
SYLV
SSWC
VDRT
VHCR
VVYN
RLGG
MMAM
QMWY
QITA
KILT
CCAR
SLTW
NTLC
MTGS
SDWT
PAYF
GGQY
TGVK
LPYC
DWKR
YCQD
WMDG
RADP
LNPF
VLAA
QFAL
PAPK
PQMK
IGSH
TFPT
VMDR
SCRC
STRD
QPIN
RFDE
RVSA
DNKI
LGWI
RIVY
RGYR
TPIH
TAHQ
PKGC
MILR
HSRV
RPDE
RWKK
YSTN
TYAS
VFKP
ACSP
ADKV
GMQL
RVIM
YKEG
VRQV
YHRR
HTWG
PVET
YPVV
DHDL
YTMS
QAGV
GKPL
QHIC
ILLE
IATG
RVTL
EIMS
EKAC
KLTP
RYDM
LAYT
GMNI
YRAC
AEFI
PRGN
CHLK
HIGG
DMET
QPQW
NTMM
PLPF
RTNN
CKDS
LAQP
VRMW
GNRP
NMVV
NRNV
SAFN
FTRM
FTTA
YGIR
PDDR
CHGR
AGLW
TQYG
LRTD
GNTT
ECYV
NGSI
RSWV
FCAD
SLES
LCCG
ILDR
PGEM
QKDK
GIMR
YFKG
SSAG
HARD
SGRF
DIGV
HDVS
SGTI
RDMS
RGNQ
TILN
GSNC
QEIG
LSKT
FRPS
YYSM
FIDS
ATNC
QDLI
PKKR
YNPG
TDPG
VACY
SNLC
HSHH
YIYE
TRDR
WPSM
TRPF
DGSL
DCAR
RGLG
AGAN
VYSG
SYDR
LRLF
EMSR
WYTA
FRDY
DTTG
SSFK
THRK
NDKW
VNRI
QMVE
RHRN
TWWR
RGQR
HMNA
WGAC
MTVG
YVRY
KPYG
NPAI
FQCG
AMSF
TCYT
ACQF
AGPA
LSVS
VENK
TQWA
SCIR
YLYE
PPEN
DKCR
VPDS
SEAQ
CHHI
RMHV
CMWG
GPHR
FRKT
RVTQ
IKGL
GFLL
SRQV
RGVL
TTLY
TWKY
YAAG
QLLC
DIPH
FAWC
EVPI
GPPC
TENK
DHPR

one-hybrid fitness for binding NBS DNA, 0.337:
QKKI

one-hybrid fitness for binding NBS DNA, 0.623:
RAKT

one-hybrid fitness for binding NBS DNA, 0.699:
RRVR

one-hybrid fitness for binding NBS DNA, 0.405:
QPKR

one-hybrid fitness for binding NBS DNA, 0.227:
QQPV

one-hybrid fitness for binding NBS DNA, 0.424:
QALR

one-hybrid fitness for binding NBS DNA, 0.436:
QYLR

one-hybrid fitness for binding NBS DNA, 0.225:
VRYT

one-hybrid fitness for binding NBS DNA, 0.207:
RRYQ
